Measurements taken from the BET-seq Pho4 binding data (Le et al. 2018).
The list shows a part of the results. These are noisy estimates, calculated here from bound and input reads.

target: T1, Pho4 (S. cerevisiae) (UniProt P07270); assay: relative binding free energy (BET-seq); higher = weaker binding; settings: reference: library average
T1 sequence: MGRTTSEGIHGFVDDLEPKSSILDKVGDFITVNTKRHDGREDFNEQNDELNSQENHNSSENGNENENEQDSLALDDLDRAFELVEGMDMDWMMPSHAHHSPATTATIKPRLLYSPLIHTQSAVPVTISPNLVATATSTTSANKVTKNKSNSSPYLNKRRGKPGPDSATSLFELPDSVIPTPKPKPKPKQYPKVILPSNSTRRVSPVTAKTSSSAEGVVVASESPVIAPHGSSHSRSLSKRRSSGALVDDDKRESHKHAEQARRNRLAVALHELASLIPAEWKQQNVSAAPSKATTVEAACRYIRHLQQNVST

Row | Sequence | relative binding free energy
1 | GGACTCACGTGAGGGT | 0.37 kcal/mol
2 | ATAGTCACGTGAGGCA | 0.22 kcal/mol
3 | GTGGTCACGTGTTTCG | 0.13 kcal/mol
4 | ATTAGCACGTGGTTAT | -0.15 kcal/mol
5 | GTGCCCACGTGTTGTG | -0.17 kcal/mol
6 | AACGTCACGTGTCGGT | 0.17 kcal/mol
7 | TTTTTCACGTGTAACT | 0.43 kcal/mol
8 | TTAACCACGTGTTGGG | -0.05 kcal/mol
9 | GGATACACGTGTCAGT | 0.14 kcal/mol
10 | TTGGACACGTGGTAGA | 0.02 kcal/mol
11 | GGTTTCACGTGACGTT | 0.38 kcal/mol
12 | GGCGGCACGTGGGATG | -0.03 kcal/mol
13 | GTATTCACGTGTTACG | 0.35 kcal/mol
14 | CTAGGCACGTGTGTCG | -0.01 kcal/mol
15 | GCCAGCACGTGGGGAG | -0.13 kcal/mol
16 | TTGTGCACGTGATCTT | 0.01 kcal/mol
17 | GTGGCCACGTGTGTGG | 0.06 kcal/mol
18 | GTGTTCACGTGCGTAA | 0.25 kcal/mol
19 | ATAATCACGTGAGGCG | 0.33 kcal/mol
20 | TTGTACACGTGTTGCG | -0.01 kcal/mol
21 | TAAGGCACGTGTCGGC | 0.07 kcal/mol
22 | CAGTCCACGTGAAGGT | 0.4 kcal/mol
23 | GTGGACACGTGCTGGG | -0.12 kcal/mol
24 | ATATACACGTGTTGTA | -0.16 kcal/mol
25 | GGGGTCACGTGCGGGG | 0.17 kcal/mol

Row | Sequence | relative binding free energy
26 | TGATGCACGTGATGTG | 0.07 kcal/mol
27 | TATAGCACGTGGGGTG | -0.18 kcal/mol
28 | CATGACACGTGTGTTA | -0.02 kcal/mol
29 | AGTTGCACGTGAGACG | 0.11 kcal/mol
30 | ATCATCACGTGTATTG | 0.15 kcal/mol
31 | GTTTACACGTGTGGCC | 0.36 kcal/mol
32 | TGTAGCACGTGGTCAA | -0.25 kcal/mol
33 | AGTTTCACGTGATTAT | 0.28 kcal/mol
34 | GCCGGCACGTGGTAGG | -0.16 kcal/mol
35 | AGTATCACGTGTCAGG | 0.02 kcal/mol
36 | TGATGCACGTGCGTTC | 0.04 kcal/mol
37 | AGTATCACGTGAGCTG | 0.38 kcal/mol
38 | AATATCACGTGTCGGT | 0.28 kcal/mol
39 | GATAGCACGTGGGGAA | -0.12 kcal/mol
40 | CGCATCACGTGGTTGT | 0.05 kcal/mol
41 | GGGTACACGTGGCAGT | 0.09 kcal/mol
42 | GGCTGCACGTGGCGGA | 0.1 kcal/mol
43 | TAGTACACGTGAAGGT | 0.26 kcal/mol
44 | TCGGTCACGTGTCGTT | 0.01 kcal/mol
45 | TGTGACACGTGTGTCT | 0.07 kcal/mol
46 | GGGCTCACGTGTGTGT | 0.31 kcal/mol
47 | CTGGACACGTGTATGG | 0.17 kcal/mol
48 | TTATCCACGTGGTGTA | 0.01 kcal/mol
49 | TTGTACACGTGTATAA | 0.08 kcal/mol
50 | GTAATCACGTGGAAGT | 0.22 kcal/mol

Row | Sequence | relative binding free energy
51 | TTAGCCACGTGGTTAG | -0.1 kcal/mol
52 | TGTTTCACGTGCGGCC | 0.32 kcal/mol
53 | TTATCCACGTGTTTAA | -0.02 kcal/mol
54 | TCTATCACGTGGTTTG | 0.2 kcal/mol
55 | TTAAGCACGTGAAGGT | 0.12 kcal/mol
56 | ATTTGCACGTGATTTT | 0.14 kcal/mol
57 | TGTAGCACGTGCAAGG | -0.03 kcal/mol
58 | ATGTACACGTGATTGA | 0.16 kcal/mol
59 | GTTGTCACGTGAGTAA | 0.31 kcal/mol
60 | GGAATCACGTGGTTTG | 0.17 kcal/mol
61 | AGTATCACGTGGTTTA | 0 kcal/mol
62 | CGTAGCACGTGATGGG | -0.08 kcal/mol
63 | TTGTGCACGTGGGGTC | -0.09 kcal/mol
64 | TTGTTCACGTGTCATA | 0.3 kcal/mol
65 | TGCGGCACGTGTGATA | -0.04 kcal/mol
66 | TGAAACACGTGGGTGG | -0.24 kcal/mol
67 | TTGATCACGTGGCTTA | 0.12 kcal/mol
68 | TCTGGCACGTGGAGGA | -0.1 kcal/mol
69 | GTTGTCACGTGGAGGA | 0.11 kcal/mol
70 | AGGTTCACGTGGCGGC | 0.04 kcal/mol
71 | TGTTACACGTGTATGA | 0.11 kcal/mol
72 | TACGTCACGTGCGGGG | -0.02 kcal/mol
73 | GGGCCCACGTGTGGGG | -0.07 kcal/mol
74 | AAGAGCACGTGGGTTG | -0.25 kcal/mol
75 | TGGGACACGTGGTATG | 0.02 kcal/mol

Row | Sequence | relative binding free energy
76 | GTCGGCACGTGGCTGT | -0.11 kcal/mol
77 | GGGGTCACGTGTGACT | 0.18 kcal/mol
78 | TGATGCACGTGTAATA | 0.15 kcal/mol
79 | TCTAACACGTGTTTTT | 0 kcal/mol
80 | AGGGTCACGTGTATAA | 0.13 kcal/mol
81 | TAACGCACGTGGTGAT | -0.14 kcal/mol
82 | AAATTCACGTGTCGGG | 0.27 kcal/mol
83 | TTCGACACGTGGTAAG | 0.13 kcal/mol
84 | GGGTCCACGTGTTTGT | 0.07 kcal/mol
85 | TTACTCACGTGGAGGT | -0.02 kcal/mol
86 | AGAGTCACGTGGATAG | -0.01 kcal/mol
87 | GGATGCACGTGGGGCG | -0.2 kcal/mol
88 | GTGTTCACGTGGGTAG | 0.19 kcal/mol
89 | AGTATCACGTGAGTGG | 0.32 kcal/mol
90 | TTAGTCACGTGACGGA | 0.04 kcal/mol
91 | GGTTTCACGTGATTGC | 0.52 kcal/mol
92 | TTAAGCACGTGAGTCG | 0.21 kcal/mol
93 | GAGGACACGTGGGGCG | -0.06 kcal/mol
94 | ATATTCACGTGGGTCT | 0.12 kcal/mol
95 | GTTATCACGTGAGTTA | 0.29 kcal/mol
96 | TTGCACACGTGTTTTT | 0.12 kcal/mol
97 | TAGTGCACGTGTGATT | 0.09 kcal/mol
98 | GTGGGCACGTGCCTGG | -0.14 kcal/mol
99 | TAGGCCACGTGCGGTG | -0.2 kcal/mol
100 | AAAGGCACGTGTGGCG | 0 kcal/mol

Row | Sequence | relative binding free energy
101 | TTGGGCACGTGATGAC | 0.1 kcal/mol
102 | GCTTACACGTGGGTTT | 0.13 kcal/mol
103 | GGTAACACGTGTGAGG | -0.01 kcal/mol
104 | CTTGGCACGTGTCTTG | -0.1 kcal/mol
105 | TCTTTCACGTGGATTT | 0.28 kcal/mol
106 | TTGGGCACGTGCGTAC | -0.14 kcal/mol
107 | GCGTGCACGTGAGAGG | 0.17 kcal/mol
108 | TTGTGCACGTGTGAGT | 0.11 kcal/mol
109 | AGGTGCACGTGACATA | 0.23 kcal/mol
110 | GGATGCACGTGATCTT | 0.23 kcal/mol
111 | GGGGGCACGTGTGAAG | 0.01 kcal/mol
112 | TTGCACACGTGGGATT | -0.04 kcal/mol
113 | GGGGGCACGTGATCAG | -0.11 kcal/mol
114 | TGTCGCACGTGACTTT | 0.21 kcal/mol
115 | AGTAGCACGTGTGTAT | -0.08 kcal/mol
116 | ATGGACACGTGGTGAA | 0.06 kcal/mol
117 | GTGATCACGTGTGGTA | 0.07 kcal/mol
118 | AGGGGCACGTGTGGGA | -0.1 kcal/mol
119 | ATTTACACGTGTTGAA | 0.06 kcal/mol
120 | TGCAGCACGTGTTTGG | -0.03 kcal/mol
121 | TGTGTCACGTGCTAGC | 0.02 kcal/mol
122 | ATAGTCACGTGGAATG | 0.06 kcal/mol
123 | TATTGCACGTGGCATT | -0.07 kcal/mol
124 | GTGTCCACGTGAGATT | 0.34 kcal/mol
125 | GAAGGCACGTGTTATA | -0.03 kcal/mol

Row | Sequence | relative binding free energy
126 | GGGATCACGTGTTGTG | 0.17 kcal/mol
127 | AGACTCACGTGTGTTG | 0.23 kcal/mol
128 | TGGTACACGTGAGGCG | 0.22 kcal/mol
129 | TGAAACACGTGGAGGA | 0.11 kcal/mol
130 | CGAATCACGTGGGCGG | 0.09 kcal/mol
131 | TCTTGCACGTGAAGTG | 0.25 kcal/mol
132 | GGGCACACGTGGATGT | 0.11 kcal/mol
133 | TTGTCCACGTGTCTGT | 0.21 kcal/mol
134 | GGTAACACGTGGCGGC | -0.03 kcal/mol
135 | TAGAGCACGTGAGTAT | 0.15 kcal/mol
136 | TTGGTCACGTGGGAAT | 0.09 kcal/mol
137 | CTAAGCACGTGGTGGT | -0.08 kcal/mol
138 | GTGAACACGTGGTAAT | -0.03 kcal/mol
139 | GGAGTCACGTGGTGGA | 0.11 kcal/mol
140 | TTCGTCACGTGGAGGG | -0.01 kcal/mol
141 | ACTGCCACGTGTGGTG | -0.05 kcal/mol
142 | AAGTGCACGTGTTTTC | 0.06 kcal/mol
143 | GTTTTCACGTGAGTTT | 0.44 kcal/mol
144 | GATGGCACGTGGTCGT | -0.03 kcal/mol
145 | GAATGCACGTGCGTTT | 0.09 kcal/mol
146 | TCTGACACGTGGGGAG | -0.1 kcal/mol
